Experimental data published in the supplement of paper PMC3334620.
In all, about 33,000 sequences were measured (“E-score (-0.5 to 0.5)”: median about -0.035, highest 2% from about 0.34 on). This is one part of the list.

target: T1, Mot3 (UniProt P54785); assay: PBM E-score (8-mer binding enrichment) (E-score (-0.5 to 0.5)); higher = stronger / more preferred TF binding; most listed sequences are background and not binding sites; conditions: protein concentration: 200 nM; construct: GST-full length
T1 sequence: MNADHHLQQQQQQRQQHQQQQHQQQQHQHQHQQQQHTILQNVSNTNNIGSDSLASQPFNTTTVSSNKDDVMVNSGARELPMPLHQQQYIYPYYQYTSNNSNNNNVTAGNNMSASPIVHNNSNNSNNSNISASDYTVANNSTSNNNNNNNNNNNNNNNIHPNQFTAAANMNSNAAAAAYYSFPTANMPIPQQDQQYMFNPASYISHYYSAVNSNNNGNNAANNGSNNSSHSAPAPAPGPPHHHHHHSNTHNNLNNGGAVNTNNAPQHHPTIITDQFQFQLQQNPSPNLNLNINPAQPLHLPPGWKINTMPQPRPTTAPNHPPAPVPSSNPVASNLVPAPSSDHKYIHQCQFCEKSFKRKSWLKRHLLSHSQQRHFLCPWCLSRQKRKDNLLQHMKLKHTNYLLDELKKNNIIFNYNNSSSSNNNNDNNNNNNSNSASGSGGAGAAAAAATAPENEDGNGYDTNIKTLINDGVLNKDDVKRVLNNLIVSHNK
Procedure: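 Universal 'all 10-mer' protein binding microarrays (Agilent AMADID 015681) probed with GST-tagged S. cerevisiae TFs (full-length or DBD) made by in vitro transcription/translation (PURExpress), about 100-200 nM. Bound TF was detected with fluorescent anti-GST. Each ungapped 8-mer (which stands for itself and its reverse complement) is scored by the PBM enrichment score (E-score), a modified Wilcoxon-Mann-Whitney statistic from -0.5 to +0.5, computed with the Universal PBM Analysis Suite. Scale: above 0.35 generally sequence-specific binding.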

| Sequence | PBM E-score |
| --- | --- |
| CGGAACTA | -0.265 |
| ATTGCTAA | 0.00179 |
| CACATTAG | -0.0252 |
| GAATATCC | -0.0482 |
| GGATATCC | 0.0614 |
| AGACGACT | -0.226 |
| CGCCTGAC | -0.0427 |
| GTCGAGCA | -0.114 |
| ATTCCCTG | -0.0347 |
| ACTGTGGA | -0.0812 |
| AGGGAGGA | -0.197 |
| GATCCGCC | -0.16 |
| AAGCGCAA | 0.0923 |
| AGACCAGA | -0.193 |
| GTAGCTAC | -0.0156 |
| AATGGTCC | -0.129 |
| CCGCCTAG | -0.138 |
| AGCAGTAG | -0.226 |
| GAGGCTGC | -0.233 |
| CGAGCCCC | -0.193 |
| GACTACCA | -0.0944 |
| CCGGGTAA | -0.0483 |
| GGGTATAA | -0.101 |
| CGGTAGCC | -0.0866 |
| CTGACTAA | -0.053 |

| Sequence | PBM E-score |
| --- | --- |
| ACATTCTA | 0.208 |
| AACCGTGC | 0.174 |
| CCAATAGA | -0.0589 |
| CGATACCA | -0.0733 |
| ATTGTTGG | 0.117 |
| AGTGGGAA | -0.154 |
| CACTCTGA | -0.0141 |
| CAGTTCGA | -0.0174 |
| GAAGAATC | -0.193 |
| CTGTATCA | 0.0168 |
| CATCTGGA | -0.216 |
| AACGTGCA | 0.136 |
| GATAGCCC | -0.137 |
| CCGGCGTA | -0.0895 |
| GATTTTTA | 0.0384 |
| CCTTCGAG | 0.211 |
| CTGATATA | 0.0216 |
| GCAGATAC | -0.135 |
| GTTCATCA | -0.0735 |
| AGCACTAG | -0.144 |
| AGCTGACT | -0.193 |
| CTGTAGTA | 0.214 |
| CGATCACC | -0.0719 |
| ACGACTCT | -0.175 |
| CTGCGAAA | -0.00218 |

| Sequence | PBM E-score |
| --- | --- |
| CTACGAAG | 0.0238 |
| GGGACTTA | -0.122 |
| ACCTACGT | 0.21 |
| CAACCCTG | -0.017 |
| GCGCATGA | -0.254 |
| CATGCACA | 0.148 |
| ATCGCACA | 0.0373 |
| AACGTGGG | 0.0124 |
| ACGGCGCC | -0.0621 |
| GGATTGTA | 0.0846 |
| CAATGTTC | -0.0231 |
| CCTCTCGA | -0.217 |
| ATGCTCTG | -0.203 |
| AGCATCCG | -0.178 |
| GGGGCTAA | -0.181 |
| GGGTGCTA | -0.13 |
| AACCTTAA | 0.16 |
| CAACAAGC | 0.221 |
| ATATAGGC | 0.275 |
| ACCGAAAA | 0.154 |
| CCACGTGA | -0.00983 |
| ACAGCGAG | -0.147 |
| AAAGTCTC | -0.0117 |
| GCAATTGC | 0.125 |
| TGATTTAA | 0.155 |

| Sequence | PBM E-score |
| --- | --- |
| CGACAGGA | 0.0979 |
| AAGCTTAG | 0.0543 |
| ACCGATCG | -0.118 |
| AGTCATAT | -0.0173 |
| ACATTAAA | 0.224 |
| CCTGTATA | 0.156 |
| CGTACTCC | -0.114 |
| CCTATTTC | 0.241 |
| TCTGAGCA | 0.0678 |
| ACCCTATC | -0.143 |
| GAGACGTA | 0.0415 |
| ATTTGGAG | -0.167 |
| GCGCGGTA | -0.0893 |
| AGGGATTG | -0.347 |
| GTCAGCCA | -0.319 |
| ACACTACC | -0.089 |
| TACCTCCA | 0.13 |
| AGTGCTAA | -0.304 |
| GGCCGCAA | -0.268 |
| CGAACGTA | 0.0397 |
| AATGTCGT | 0.172 |
| CTGGGTCC | -0.219 |
| CCATGTCC | -0.15 |
| GCGAACCC | -0.014 |
| AGAAAACT | 0.0517 |

| Sequence | PBM E-score |
| --- | --- |
| AGAGACAC | -0.0623 |
| ACGTAAAT | 0.272 |
| ACGGACCC | -0.361 |
| ACTTCCTA | -0.09 |
| CGTTAGAA | 0.0129 |
| GCAGCACC | 0.00987 |
| AGCGCGTC | 0.0182 |
| ACACTAAA | 0.157 |
| GTAACTAA | 0.0996 |
| CGGGTGCA | -0.35 |
| CAATGGCC | -0.243 |
| CAGTGGGC | -0.203 |
| GACATCAC | 0.0612 |
| CCCCTGCA | 0.0448 |
| AATGACTC | -0.00757 |
| CATCACGA | 0.0133 |
| CTCTGTCC | -0.196 |
| GACTTGCC | 0.127 |
| AATGACAG | -0.0936 |
| ACAAGAGA | 0.0365 |
| CTAGGCAA | 0.474 |
| ATACATTC | 0.209 |
| CATATTGA | -0.0254 |
| AGCCCGGA | -0.363 |
| CATCTAAC | 0.0422 |

| Sequence | PBM E-score |
| --- | --- |
| CGGTGCTA | -0.348 |
| CAAACGCA | 0.161 |
| CATTGGAG | -0.179 |
| CTATGCAA | 0.0284 |
| CTCCAGTA | -0.0917 |
| ACAATATA | 0.192 |
| TAACCAGA | 0.0736 |
| ACTGCCAT | -0.0362 |
| CGCTCCTC | -0.269 |
| ATGTACAA | 0.332 |
| ACGGTACC | 0.0191 |
| AATTCCTA | 0.157 |
| CTAGGCAG | -0.0742 |
| ACATTATC | 0.254 |
| CGACCAGC | -0.196 |
| ACACCGGT | -0.0775 |
| ACATGGAA | 0.245 |
| GAGTCACA | -0.00139 |
| CCACAACA | -0.0484 |
| GCACATCC | 0.0181 |
| ACCCTACG | 0.0488 |
| AGTCATAC | -0.00851 |
| ACCGGGAT | -0.301 |
| CGTTCCGA | -0.159 |
| CGTACCCC | -0.118 |

| Sequence | PBM E-score |
| --- | --- |
| ACAAAGAT | 0.0899 |
| AGGCTGTA | 0.159 |
| ATCCTCTC | -0.349 |
| GGGAGGCA | 0.364 |
| GTCGCAAA | 0.0742 |
| ACGCTATA | -0.0207 |
| AGTTACTC | -0.0616 |
| ATATTTTG | -0.0539 |
| ACTGTGTA | 0.349 |
| ATGTCTCA | -0.114 |
| CCCGTATA | -0.163 |
| AAATTGAC | 0.0359 |
| CCTTTTAG | 0.172 |
| ATATATAA | 0.0423 |
| AGTGGGGA | -0.256 |
| AAGCTCTC | -0.169 |
| TTCCCGAA | 0.0585 |
| TCCTACGA | -0.0139 |
| CCGAATAG | -0.139 |
| ACGTGGAT | 0.0404 |
| ACGCAGTG | -0.108 |
| ACCCCAAC | -0.0506 |
